# According to the supplement of paper PMC8728848:
# The list shows a part of the results.
# Columns and labels:
# Experiment in all cases: glycan array binding signal (z-score within array); higher = stronger binding
# Settings in all cases: glycan notation: IUPAC condensed, linker removed
# Fuc(a1-2)Gal = target: Fuc(a1-2)Gal
# Summary of the method: (§1)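 From the Consortium for Functional Glycomics database, 3228 arrays were curated, keeping only those whose protein sequence was available. Binding is given as a within-array Z-score averaged across arrays sharing a protein sequence and across linkers. Negative Z-scores can be read as non-binding.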
# Fuc(a1-2)Gal(b1-3)GalNAc = target: Fuc(a1-2)Gal(b1-3)GalNAc
# Summary of the method: as §1
# [1] = target: Fuc(a1-2)Gal(b1-3)GalNAc(a1-3)[Fuc(a1-2)]Gal(b1-4)Glc
# Summary of the method: as §1
# [2] = target: Fuc(a1-2)Gal(b1-3)GalNAc(a1-3)[Fuc(a1-2)]Gal(b1-4)GlcNAc
# Summary of the method: as §1
# [3] = target: Fuc(a1-2)Gal(b1-3)GalNAc(b1-3)Gal
# Summary of the method: as §1
# [4] = target: Fuc(a1-2)Gal(b1-3)GalNAc(b1-3)Gal(a1-4)Gal(b1-4)Glc
# Summary of the method: as §1
# [5] = target: Fuc(a1-2)Gal(b1-3)GalNAc(b1-4)[Neu5Ac(a2-3)]Gal(b1-4)Glc
# Summary of the method: as §1
# Fuc(a1-2)Gal(b1-3)GlcNAc = target: Fuc(a1-2)Gal(b1-3)GlcNAc
# Summary of the method: as §1
# [6] = target: Fuc(a1-2)Gal(b1-3)GlcNAc(b1-2)Man(a1-3)[Fuc(a1-2)Gal(b1-3)GlcNAc(b1-2)Man(a1-6)]Man(b1-4)GlcNAc(b1-4)GlcNAc
# Summary of the method: as §1
# [7] = target: Fuc(a1-2)Gal(b1-3)GlcNAc(b1-2)Man(a1-3)[Fuc(a1-2)Gal(b1-3)GlcNAc(b1-2)Man(a1-6)]Man(b1-4)GlcNAc(b1-4)[Fuc(a1-6)]GlcNAc
# Summary of the method: as §1
# [8] = target: Fuc(a1-2)Gal(b1-3)GlcNAc(b1-3)Gal(b1-4)Glc
# Summary of the method: as §1
# [9] = target: Fuc(a1-2)Gal(b1-3)GlcNAc(b1-3)GalNAc
# Summary of the method: as §1
# [10] = target: Fuc(a1-2)Gal(b1-3)GlcNAc(b1-3)[Fuc(a1-2)Gal(b1-3)GlcNAc(b1-6)]GalNAc
# Summary of the method: as §1
# [11] = target: Fuc(a1-2)Gal(b1-3)GlcNAc(b1-3)[Gal(b1-4)GlcNAc(b1-6)]Gal(b1-4)Glc
# Summary of the method: as §1
# [12] = target: Fuc(a1-2)Gal(b1-3)GlcNAc(b1-3)[Neu5Ac(a2-6)Gal(b1-4)GlcNAc(b1-6)]Gal(b1-4)Glc
# Summary of the method: as §1
# [13] = target: Fuc(a1-2)Gal(b1-3)GlcNAc6S
# Summary of the method: as §1
# [14] = target: Fuc(a1-2)Gal(b1-3)[Fuc(a1-4)]GlcNAc
# Summary of the method: as §1
# [15] = target: Fuc(a1-2)Gal(b1-3)[Fuc(a1-4)]GlcNAc(b1-2)Man(a1-3)[Fuc(a1-2)Gal(b1-3)[Fuc(a1-4)]GlcNAc(b1-2)Man(a1-3)]Man(b1-4)GlcNAc(b1-4)GlcNAc
# Summary of the method: as §1
# [16] = target: Fuc(a1-2)Gal(b1-3)[Fuc(a1-4)]GlcNAc(b1-2)Man(a1-3)[Fuc(a1-2)Gal(b1-3)[Fuc(a1-4)]GlcNAc(b1-2)Man(a1-6)]Man(b1-4)GlcNAc(b1-4)[Fuc(a1-6)]GlcNAc(b1-4)[Fuc(a1-6)]GlcNAc
# Summary of the method: as §1
# [17] = target: Fuc(a1-2)Gal(b1-3)[Fuc(a1-4)]GlcNAc(b1-3)[Fuc(a1-3)[Gal(b1-4)]GlcNAc(b1-6)]Gal(b1-4)Glc
# Summary of the method: as §1
# [18] = target: Fuc(a1-2)Gal(b1-3)[Fuc(a1-4)]GlcNAc(b1-3)[Gal(b1-4)GlcNAc(b1-6)]Gal(b1-4)Glc
# Summary of the method: as §1
# [19] = target: Fuc(a1-2)Gal(b1-4)Fuc(a1-3)]GlcNAc(b1-2)Man(a1-3)[Fuc(a1-2)Gal(b1-4)[Fuc(a1-3)]GlcNAc(b1-2)Man(a1-6)]Man(b1-4)GlcNAc(b1-4)GlcNAc
# Summary of the method: as §1
# Fuc(a1-2)Gal(b1-4)Glc = target: Fuc(a1-2)Gal(b1-4)Glc
# Summary of the method: as §1
# Fuc(a1-2)Gal(b1-4)Glc6S = target: Fuc(a1-2)Gal(b1-4)Glc6S
# Summary of the method: as §1
# Fuc(a1-2)Gal(b1-4)GlcNAc = target: Fuc(a1-2)Gal(b1-4)GlcNAc
# Summary of the method: as §1
# [20] = target: Fuc(a1-2)Gal(b1-4)GlcNAc(b1-2)Man
# Summary of the method: as §1
# [21] = target: Fuc(a1-2)Gal(b1-4)GlcNAc(b1-2)Man(a1-3)[Fuc(a1-2)Gal(b1-4)GlcNAc(b1-2)Man(a1-6)]Man(b1-4)GlcNAc(b1-4)GlcNAc
# Summary of the method: as §1
# [22] = target: Fuc(a1-2)Gal(b1-4)GlcNAc(b1-2)Man(a1-3)[Fuc(a1-2)Gal(b1-4)GlcNAc(b1-2)Man(a1-6)]Man(b1-4)GlcNAc(b1-4)[Fuc(a1-6)]GlcNAc
# Summary of the method: as §1
# [23] = target: Fuc(a1-2)Gal(b1-4)GlcNAc(b1-2)[Fuc(a1-2)Gal(b1-4)GlcNAc(b1-4)]Man(a1-3)[Fuc(a1-2)Gal(b1-4)GlcNAc(b1-2)Man(a1-6)]Man(b1-4)GlcNAc(b1-4)GlcNAc
# Summary of the method: as §1
# [24] = target: Fuc(a1-2)Gal(b1-4)GlcNAc(b1-3)Gal(b1-4)GlcNAc
# Summary of the method: as §1
# [25] = target: Fuc(a1-2)Gal(b1-4)GlcNAc(b1-3)Gal(b1-4)GlcNAc(b1-2)Man(a1-3)[Fuc(a1-2)Gal(b1-4)GlcNAc(b1-3)Gal(b1-4)GlcNAc(b1-2)Man(a1-6)]Man(b1-4)GlcNAc(b1-4)GlcNAc
# Summary of the method: as §1
# [26] = target: Fuc(a1-2)Gal(b1-4)GlcNAc(b1-3)Gal(b1-4)GlcNAc(b1-3)Gal(b1-4)GlcNAc
# Summary of the method: as §1
# [27] = target: Fuc(a1-2)Gal(b1-4)GlcNAc(b1-3)GalNAc
# Summary of the method: as §1
# [28] = target: Fuc(a1-2)Gal(b1-4)GlcNAc(b1-3)[Fuc(a1-2)Gal(b1-4)GlcNAc(b1-6)]GalNAc
# Summary of the method: as §1
# [29] = target: Fuc(a1-2)Gal(b1-4)GlcNAc(b1-3)[Fuc(a1-3)[Gal(b1-4)]GlcNAc(b1-6)]Gal(b1-4)Glc
# Summary of the method: as §1
# [30] = target: Fuc(a1-2)Gal(b1-4)GlcNAc(b1-6)GalNAc
# Summary of the method: as §1
# [31] = target: Fuc(a1-2)Gal(b1-4)GlcNAc6S
# Summary of the method: as §1
# [32] = target: Fuc(a1-2)Gal(b1-4)[Fuc(a1-3)]GlcNAc
# Summary of the method: as §1
# [33] = target: Fuc(a1-2)Gal(b1-4)[Fuc(a1-3)]GlcNAc(b1-2)Man(a1-3)[Fuc(a1-2)Gal(b1-4)[Fuc(a1-3)]GlcNAc(b1-2)Man(a1-6)]Man(b1-4)GlcNAc(b1-4)[Fuc(a1-6)]GlcNAc
# Summary of the method: as §1
# [34] = target: Fuc(a1-2)Gal(b1-4)[Fuc(a1-3)]GlcNAc(b1-2)[Fuc(a1-2)Gal(b1-4)[Fuc(a1-3)]GlcNAc(b1-4)]Man(a1-3)[Fuc(a1-2)Gal(b1-4)[Fuc(a1-3)]GlcNAc(b1-2)Man(a1-6)]Man(b1-4)GlcNAc(b1-4)GlcNAc
# Summary of the method: as §1
# [35] = target: Fuc(a1-2)Gal(b1-4)[Fuc(a1-3)]GlcNAc(b1-3)Gal(b1-4)[Fuc(a1-3)]GlcNAc
# Summary of the method: as §1
# [36] = target: Fuc(a1-2)Gal(b1-4)[Fuc(a1-3)]GlcNAc(b1-3)Gal(b1-4)[Fuc(a1-3)]GlcNAc(b1-3)Gal(b1-4)[Fuc(a1-3)]GlcNAc
# Summary of the method: as §1
# [37] = target: Fuc(a1-2)Gal(b1-4)[Fuc(a1-3)]GlcNAc(b1-3)GalNAc
# Summary of the method: as §1
# [38] = target: Fuc(a1-2)Gal(b1-4)[Fuc(a1-3)]GlcNAc(b1-3)[Neu5Ac(a2-6)Gal(b1-4)GlcNAc(b1-6)]Gal(b1-4)Glc
# Summary of the method: as §1
# [39] = target: Fuc(a1-2)Gal3S(b1-4)GlcNAc
# Summary of the method: as §1
binder,measurement,setting,value
"CSA (Cytisus scoparius), P29257 (protein) SEELSFSFTKFKTDQKNLILQRDALITPTGKLQLTTVENGKPAAYSLGRALYSTPIHIWDKSTGDEASFATFFSFVISDAPNPSTAATDGLAFFLAPADTQPQSAGGYLGLFEKDSSYNSSNQIVAVEFDTYYNSAWDPQTNPHIGIDVNTIKSKKVSSWGFKNGNVATVLITYQPSSKSLVASLVYPSGQTSDKTSYIISANVDLKATVPEWVRIGFSATTGQTDNYIETHDILSWSFKSKLPATKN",glycan array binding signal (z-score),Fuc(a1-2)Gal,-0.195
same,glycan array binding signal (z-score),Fuc(a1-2)Gal(b1-3)GalNAc,-0.169
same,glycan array binding signal (z-score),[1],-0.148
same,glycan array binding signal (z-score),[2],-0.115
same,glycan array binding signal (z-score),[3],-0.171
same,glycan array binding signal (z-score),[4],-0.174
same,glycan array binding signal (z-score),[5],-0.177
same,glycan array binding signal (z-score),Fuc(a1-2)Gal(b1-3)GlcNAc,-0.188
same,glycan array binding signal (z-score),[6],0.099
same,glycan array binding signal (z-score),[7],-0.169
same,glycan array binding signal (z-score),[8],-0.178
same,glycan array binding signal (z-score),[9],-0.16
same,glycan array binding signal (z-score),[10],-0.16
same,glycan array binding signal (z-score),[11],-0.129
same,glycan array binding signal (z-score),[12],-0.198
same,glycan array binding signal (z-score),[13],-0.18
same,glycan array binding signal (z-score),[14],-0.172
same,glycan array binding signal (z-score),[15],-0.179
same,glycan array binding signal (z-score),[16],-0.207
same,glycan array binding signal (z-score),[17],-0.19
same,glycan array binding signal (z-score),[18],-0.247
same,glycan array binding signal (z-score),[19],0.041
same,glycan array binding signal (z-score),Fuc(a1-2)Gal(b1-4)Glc,-0.164
same,glycan array binding signal (z-score),Fuc(a1-2)Gal(b1-4)Glc6S,-0.106
same,glycan array binding signal (z-score),Fuc(a1-2)Gal(b1-4)GlcNAc,-0.097
same,glycan array binding signal (z-score),[20],-0.215
same,glycan array binding signal (z-score),[21],0.276
same,glycan array binding signal (z-score),[22],-0.02
same,glycan array binding signal (z-score),[23],0.047
same,glycan array binding signal (z-score),[24],0.07
same,glycan array binding signal (z-score),[25],0.571
same,glycan array binding signal (z-score),[26],0.266
same,glycan array binding signal (z-score),[27],-0.179
same,glycan array binding signal (z-score),[28],-0.094
same,glycan array binding signal (z-score),[29],-0.159
same,glycan array binding signal (z-score),[30],0.18
same,glycan array binding signal (z-score),[31],-0.135
same,glycan array binding signal (z-score),[32],-0.189
same,glycan array binding signal (z-score),[33],-0.134
same,glycan array binding signal (z-score),[34],-0.125
same,glycan array binding signal (z-score),[35],-0.183
same,glycan array binding signal (z-score),[36],-0.175
same,glycan array binding signal (z-score),[37],-0.115
same,glycan array binding signal (z-score),[38],-0.208
same,glycan array binding signal (z-score),[39],-0.158
